In the supplement of paper PMC11246515:

Assay: total protein half-life in vivo (active degradation + dilution); higher = more stable protein

MKDIDTLISNNALWSKMLVEEDPGFFEKLAQAQKPRFLWIGCSDSRVPAERLTGLEPGELFVHRNVANLVIHTDLNCLSVVQYAVDVLEVEHIIICGHYGCGGVQAAVENPELGLINNWLLHIRDIWFKHSSLLGEMPQERRLDTLCELNVMEQVYNLGHSTIMQSAWKRGQKVTIHGWAYGIHDGLLRDLDVTATNRETLEQRYRHGISNLKLKHANHK
growth: N-lim chemostat, doubling time 6 h
Details | total protein half-life in vivo [h]
E. coli NCM3722 delta-clpP | 6.43
E. coli NCM3722 delta-clpP delta-lon delta-hslV | 5.61
E. coli NCM3722 delta-hslV | 6.84
E. coli NCM3722 delta-lon | 5.9
E. coli NCM3722 delta-smpB | 5.47

total protein half-life in vivo [h]
Details | wild type E. coli NCM3722, growth: C-lim chemostat | wild type E. coli NCM3722, growth: N-lim chemostat | wild type E. coli NCM3722, growth: P-lim chemostat
doubling time 3 h | 3 | – | –
doubling time 6 h | 5.98 | 5.417 | 6.16
doubling time 12 h | 8.84 | 12.6 | 13.3
